The record followed here is ChEMBL document CHEMBL1156829.

The full ranking holds about 5,400 compounds; the median of “IFI” is about 2, and the highest 2% start at about 22. Some of the results follow.

The test in a line: NOVARTIS: Inhibition Frequency Index (IFI) - the number of HTS assays where a compound showed > 50% inhibition/induction, expressed as a percentage of the number of assays in which the compound was tested. The format is functional.
The compound `O=C(/C=C/c1ccc(Br)cc1)NC(=O)c1ccccc1O` had an IFI of 0%.
In the case of `O=C(NCCCN1CCCC1=O)c1cccn2c(=O)c3ccc(Cl)cc3nc12`, the IFI was 2.78%.
The figure for `COc1cc(/C=C(\C#N)c2nc3ccccc3[nH]2)ccc1OCc1ccccc1` is 0%; for `CCN(CC)CCCC(C)Nc1nc(/C=C/c2ccccc2OC)nc2cc(Cl)ccc12` (configuration not stated) it is 9.09%.
As to `O=C(COc1ccccc1)NC(c1ccco1)c1cc(Cl)c2cccnc2c1O` (configuration not stated), the IFI stood at 4.17%.
As to `CC[n+]1c(/C=C(C)/C=C2\Sc3ccccc3N2CCO)sc2ccccc21`, the IFI is 7.69%.
Compound `O=C(Cc1ccccc1)NCCCCNc1ccnc2cc(Cl)ccc12` registered an IFI of 4.81%.
As for `CCc1nc2nc(C)cc(Nc3ccc(F)c(Cl)c3)n2n1`, the IFI worked out at 0%.
The figure for `COC(=O)[C@@H]1C[C@@H](NC(=O)c2ccc(OC)cc2OC)CN1CC(c1ccccc1)c1ccccc1` is 1.44%; for `C=CCC(=O)NC1CCN(CC(O)CN(Cc2ccccc2)S(=O)(=O)c2ccccc2)C1` (configuration not stated) it is 2.91%.
`CSc1oc(C(C)(C)C)nc1[P+](c1ccccc1)(c1ccccc1)c1ccccc1`: the IFI was 23.2%.
With `O=[N+]([O-])c1cccc2c1nnn2C12CC3CC(CC(O)(C3)C1)C2` the figure was 0%; with `CCC(C)(C#CCN1CCCC1)OC(C)=O` (configuration not stated), 0%.
With `Cc1cc(N2CCN(C3CCCC3)CC2)n2c(nc3ccccc32)c1C#N` the figure was 4.71%.
The compound `COc1ccc(CN2CCc3nnc(CCc4ccccc4)n3CC2)c(F)c1` had an IFI of 0%.
Turning to `COc1ccc(CCN2C(=O)c3ccc(Oc4ccc(NC(=O)c5oc(=O)c6ccccc6c5-c5ccccc5)cc4)cc3C2=O)cc1OC`, the IFI came to 0%.
With `CCCOC(=O)C1=C(C)NC2=C(C(=O)CCC2)C1c1cc(Br)c(O)c(OCC)c1` (configuration not stated) the figure was 3.45%; with `Cc1c(Cl)cccc1NC(=O)c1cccnc1Cl`, 15.4%.
In the case of `CCC(/C=C1\Sc2ccc(OC)cc2N1CCCS(=O)(=O)O)=C\c1sc2ccc(OC)cc2[n+]1CCCS(=O)(=O)O`, the IFI stood at 22.7%.
The figure for `Cc1cccc(N(C)c2ccnc3c(-c4cccc(C(N)=O)c4)cnn23)c1` is 4.35%.
The figure for `O=C(CCC1CCCN(C(=O)c2ccsc2)C1)N1CCN(c2ccccn2)CC1` (configuration not stated) is 0%; for GNF-Pf-1437, CHEMBL576411 it is 14.3%; for `COc1ccc(C2C(C(=O)Nc3cccc(C(F)(F)F)c3)c3ccccc3C(=O)N2C2CCCCC2)cc1` (configuration not stated) it is 0%.
In turn, `c1ccc(-c2cccc(-c3ccccn3)n2)nc1` yielded an IFI of 21.6%.
`COc1ccc(/C=C/c2ccc3ccccc3[n+]2C)cc1`: the IFI was 10.6%.
`CC(C)CN1C(=O)c2ccccc2C(C(=O)Nc2ccccc2F)C1c1cccs1` (configuration not stated) came in with an IFI of 3.03%.
With `COc1ccccc1NC(=O)c1cnn(-c2ccccc2)c1-n1cccc1` the figure was 0%; with `COC1=C(Nc2cccc(C(F)(F)F)c2)C(=O)c2ccccc2C1=O`, 4.65%.
With `CCOC(=O)C1(CC2CCCCO2)CCN(Cc2cccc(C)n2)CC1` (configuration not stated) the figure was 0%.
`C/C=C/C(C(=O)NCCCC)N1C(=O)c2cc(NC(C)=O)ccc2NC(=O)[C@@H]1CCC(=O)O` (some centres not stated) gave an IFI of 1.24%.
With `Cc1ccc(CNC(=O)c2cc(=O)[nH]c3ccc(S(=O)(=O)N4CCOCC4)cc23)cc1` the figure was 0%; with `COc1ccc(-c2noc(CC(=O)Nc3ccccc3C#N)n2)cc1`, 0%; with `CCOC(=O)c1ccc2c(c1)[C@@H]1C=CC[C@@H]1[C@H](c1cccc(OC)c1OC)N2`, 0%.
With `CC(C)Cc1nc(N2CCOCC2)c2nnn(Cc3ccccc3)c2n1` the figure was 0%; with `CC1=C(C(=O)OC(C)C)C(c2cccc([N+](=O)[O-])c2)C2=C(CCCC2=O)N1` (configuration not stated), 1.15%; with `CCOC(=O)c1cnc2c(OC)cccc2c1Nc1ccc(C(C)=O)cc1`, 0%.
The compound `Cc1ccc2ncnc(Nc3cccc(C(F)(F)F)c3)c2c1` came in with an IFI of 4.41%.
`CCOC(=O)c1sc(-c2cnccc2C(F)(F)F)nc1C`: the IFI turned out to be 5.68%.
The figure for `O=C(COc1ccc(Cl)cc1)Nc1nnc(-c2ccc3c(c2)OCO3)s1` is 1.71%; for `COCCn1c(=S)[nH]c2cc(C(=O)NCCc3ccc(S(N)(=O)=O)cc3)ccc2c1=O` it is 0%; for `CC(C)CC(N)C(=O)NCCCNc1nsc2ccccc12` (configuration not stated) it is 20.8%.
`CCOC(=O)C(Cc1ccc(O)cc1)NC1=CC(=O)C(=O)c2ccccc21` (configuration not stated) registered an IFI of 0%.
Compound `O=C(CCNS(=O)(=O)c1ccc(Br)s1)N1CCc2ccccc2C1` had an IFI of 0%.
The figure for `O=C(Nc1ccc(-c2cc(-c3ccccc3)nc(-c3ccc(NC(=O)c4cccc([N+](=O)[O-])c4)cc3)n2)cc1)c1cccc([N+](=O)[O-])c1` is 0%.
The figure for `COC(=O)C1=C(C)N/C(=C/c2cc(C)n(-c3ccc(Cl)c(Cl)c3)c2C)C1=O` is 0%.
The figure for `COc1cc(Nc2cncc(-c3ccncc3)n2)cc(OC)c1OC` is 0%.
Take `C=C(C)C(=O)OCCc1ccc(O)c(-n2nc3ccccc3n2)c1`: the IFI came out at 0%.
`O=C1C(Nc2ccc(O)cc2)=CC(=NS(=O)(=O)c2cccs2)c2ccccc21`: the IFI is 23.1%.
The figure for `COc1ccc(-n2nc([N+](=O)[O-])c(Nc3ccc([N+](=O)[O-])cc3C)[n+]2[O-])cc1` is 0%; for `O=[N+]([O-])c1cc(Br)c(Nc2ccccc2)c([N+](=O)[O-])c1` it is 7.69%; for `Cc1c(NC(=O)C2c3ccccc3C(=O)N3CCc4ccccc4C23)cccc1[N+](=O)[O-]` (configuration not stated) it is 0%.
With `CC(=O)N(C1=C(N2CCCCC2)C(=O)c2ccccc2C1=O)c1ccccc1C` the figure was 0%; with `O=C(Nc1ccc(Cl)c(C(F)(F)F)c1)NC1CC2CCC(C1)N2C1CCCC1` (configuration not stated), 1.28%.
With `CCC(SC1=Nc2ccccc2C2=NC(C(C)C)C(=O)N12)C(=O)Nc1cccc(C)c1` (configuration not stated) the figure was 1.16%.
Turning to `COc1cc(NC(C)CCCN(Cc2ccccc2OC)C(=O)COCc2ccccc2)c2ncccc2c1` (configuration not stated), the IFI was found to be 2.8%.
The figure for `c1ccc2c(NC3CCCC3)nc(Nc3ccc4c(c3)OCO4)nc2c1` is 0%; for `Cc1ncc(CN2CCC(C(=O)Nc3ccc(-c4nc5ccccc5o4)cc3)CC2)s1` it is 0%.
With `CCC(C)(C)c1ccc(OCCOCC[n+]2ccccc2)c(C(C)(C)CC)c1` the figure was 6.52%; with `CCCCCN(C(=O)Nc1ccccc1OC)C(C)c1nc2ccccc2c(=O)n1-c1ccccc1OCC` (configuration not stated), 3.7%; with `O=C1NN=C(CC(=O)N2CC[C@@H](c3ccccc3)[C@H](O)C2)C2C=CC=CC12` (some centres not stated), 0%.
`CCOc1ccc(S(=O)(=O)N=C2C=C(Nc3ccc(O)cc3)C(=O)c3ccccc32)cc1` displayed an IFI of 15.4%.
With `COc1ccc2c(c1)OC(O)(C(F)(F)C(F)(F)F)CC2=O` (configuration not stated) the figure was 0%.
